{"source": "paper PMC9911399", "about": "“Two distinct binding modes provide the RNA-binding protein RbFox with extraordinary sequence specificity”", "binders": {"B1": {"name": "UUUCGUA (DNA:RNA)", "RNA": "GGGAGACCGGAAUUCAGAUUGUCCUUUCGUAUUAAAUCCCGUCGUAGCCACCA", "DNA 1": "CAATCTGAATTCCGGTCTCCC", "DNA 2": "TGGTGGCTACGACGGGATT"}, "B2": {"name": "AGCAAGC (DNA:RNA)", "RNA": "GGGAGACCGGAAUUCAGAUUGUCCAGCAAGCUUAAAUCCCGUCGUAGCCACCA", "DNA 1": "CAATCTGAATTCCGGTCTCCC", "DNA 2": "TGGTGGCTACGACGGGATT"}, "B3": {"name": "GGCCGUA (DNA:RNA)", "RNA": "B1 RNA with U25G, U26G, U27C", "DNA 1": "CAATCTGAATTCCGGTCTCCC", "DNA 2": "TGGTGGCTACGACGGGATT"}, "B4": {"name": "AGUCCCU (DNA:RNA)", "RNA": "B2 RNA with C27U, A28C, A29C, G30C, C31U", "DNA 1": "CAATCTGAATTCCGGTCTCCC", "DNA 2": "TGGTGGCTACGACGGGATT"}, "B5": {"name": "CCAAUCA (DNA:RNA)", "RNA": "B2 RNA with A25C, G26C, C27A, A29U, G30C, C31A", "DNA 1": "CAATCTGAATTCCGGTCTCCC", "DNA 2": "TGGTGGCTACGACGGGATT"}, "B6": {"name": "CUGGUGG (DNA:RNA)", "RNA": "B2 RNA with A25C, G26U, C27G, A28G, A29U, C31G", "DNA 1": "CAATCTGAATTCCGGTCTCCC", "DNA 2": "TGGTGGCTACGACGGGATT"}, "B7": {"name": "UCAAUCA (DNA:RNA)", "RNA": "B1 RNA with U26C, U27A, C28A, G29U, U30C", "DNA 1": "CAATCTGAATTCCGGTCTCCC", "DNA 2": "TGGTGGCTACGACGGGATT"}, "B8": {"name": "CAUGGCC (DNA:RNA)", "RNA": "B1 RNA with U25C, U26A, C28G, U30C, A31C", "DNA 1": "CAATCTGAATTCCGGTCTCCC", "DNA 2": "TGGTGGCTACGACGGGATT"}, "B9": {"name": "GCUCUCA (DNA:RNA)", "RNA": "B1 RNA with U25G, U26C, G29U, U30C", "DNA 1": "CAATCTGAATTCCGGTCTCCC", "DNA 2": "TGGTGGCTACGACGGGATT"}, "B10": {"name": "CAACUAG (DNA:RNA)", "RNA": "B1 RNA with U25C, U26A, U27A, G29U, U30A, A31G", "DNA 1": "CAATCTGAATTCCGGTCTCCC", "DNA 2": "TGGTGGCTACGACGGGATT"}, "B11": {"name": "AUAGCCU (DNA:RNA)", "RNA": "B2 RNA with G26U, C27A, A28G, A29C, G30C, C31U", "DNA 1": "CAATCTGAATTCCGGTCTCCC", "DNA 2": "TGGTGGCTACGACGGGATT"}, "B12": {"name": "GGAGAUU (DNA:RNA)", "RNA": "B2 RNA with A25G, C27A, A28G, G30U, C31U", "DNA 1": "CAATCTGAATTCCGGTCTCCC", "DNA 2": "TGGTGGCTACGACGGGATT"}, "B13": {"name": "UUGGGAA (DNA:RNA)", "RNA": "B1 RNA with U27G, C28G, U30A", "DNA 1": "CAATCTGAATTCCGGTCTCCC", "DNA 2": "TGGTGGCTACGACGGGATT"}, "B14": {"name": "AGAUUUU (DNA:RNA)", "RNA": "B2 RNA with C27A, A28U, A29U, G30U, C31U", "DNA 1": "CAATCTGAATTCCGGTCTCCC", "DNA 2": "TGGTGGCTACGACGGGATT"}, "B15": {"name": "CGCUGUA (DNA:RNA)", "RNA": "B1 RNA with U25C, U26G, U27C, C28U", "DNA 1": "CAATCTGAATTCCGGTCTCCC", "DNA 2": "TGGTGGCTACGACGGGATT"}, "B16": {"name": "GCAUCGA (DNA:RNA)", "RNA": "B2 RNA with A25G, G26C, C27A, A28U, A29C, C31A", "DNA 1": "CAATCTGAATTCCGGTCTCCC", "DNA 2": "TGGTGGCTACGACGGGATT"}, "B17": {"name": "CCUUUCA (DNA:RNA)", "RNA": "B1 RNA with U25C, U26C, C28U, G29U, U30C", "DNA 1": "CAATCTGAATTCCGGTCTCCC", "DNA 2": "TGGTGGCTACGACGGGATT"}, "B18": {"name": "UGCAAAA (DNA:RNA)", "RNA": "B2 RNA with A25U, G30A, C31A", "DNA 1": "CAATCTGAATTCCGGTCTCCC", "DNA 2": "TGGTGGCTACGACGGGATT"}, "B19": {"name": "CUCGGAU (DNA:RNA)", "RNA": "B1 RNA with U25C, U27C, C28G, U30A, A31U", "DNA 1": "CAATCTGAATTCCGGTCTCCC", "DNA 2": "TGGTGGCTACGACGGGATT"}, "B20": {"name": "UGUAGCC (DNA:RNA)", "RNA": "B2 RNA with A25U, C27U, A29G, G30C", "DNA 1": "CAATCTGAATTCCGGTCTCCC", "DNA 2": "TGGTGGCTACGACGGGATT"}}, "note": "Substitutions are numbered along the chain they refer to; changes in the protein carry UniProt numbers. Some of the results follow.", "data": [{"molecular_target": "T1, RBFOX1 RRM (Homo sapiens, UniProt Q9NWB1 109-208)", "T1 sequence": "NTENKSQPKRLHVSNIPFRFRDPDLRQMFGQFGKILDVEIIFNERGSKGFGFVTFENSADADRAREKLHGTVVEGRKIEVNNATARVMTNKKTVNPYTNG", "experiment": "EMSA; HiTS-Eq, 1 nM pool, 10 min; buffer printed only for the single-RNA assays: 10 mM Tris pH 7.5, 150 mM NaCl, 3.4 mM EDTA, 0.001% NP-40, 30 C", "conditions": "tags: His6 N-terminal (pET28a); label: 5' 32P", "outline": "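A pool of RNA with 7 randomized nucleotides, 5′-radiolabelled and with DNA-annealed flanks, was equilibrated at 1 nM for 10 min in 50 µL with purified RbFox RRM, wild type or mutant, across increasing protein concentrations. Free RNA was separated by 8% native PAGE, excised, reverse-transcribed, barcoded by PCR and sequenced. Relative association constants were obtained from read-count changes of each RNA species versus the control reaction and normalised to the cognate motif.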", "values": [{"binder": "B1", "binding signal": "0.0114 KA relative to UGCAUGU"}, {"binder": "B2", "binding signal": "0.0136 KA relative to UGCAUGU"}, {"binder": "B3", "binding signal": "0.00981 KA relative to UGCAUGU"}, {"binder": "B4", "binding signal": "0.00574 KA relative to UGCAUGU"}, {"binder": "B5", "binding signal": "0.000201 KA relative to UGCAUGU"}, {"binder": "B6", "binding signal": "0.019 KA relative to UGCAUGU"}, {"binder": "B7", "binding signal": "0.00144 KA relative to UGCAUGU"}, {"binder": "B8", "binding signal": "0.012 KA relative to UGCAUGU"}, {"binder": "B9", "binding signal": "0.00823 KA relative to UGCAUGU"}, {"binder": "B10", "binding signal": "0.00305 KA relative to UGCAUGU"}, {"binder": "B11", "binding signal": "0.00479 KA relative to UGCAUGU"}, {"binder": "B12", "binding signal": "0.0219 KA relative to UGCAUGU"}, {"binder": "B13", "binding signal": "0.0102 KA relative to UGCAUGU"}, {"binder": "B14", "binding signal": "0.0111 KA relative to UGCAUGU"}, {"binder": "B15", "binding signal": "0.0108 KA relative to UGCAUGU"}, {"binder": "B16", "binding signal": "0.0185 KA relative to UGCAUGU"}, {"binder": "B17", "binding signal": "0.00509 KA relative to UGCAUGU"}, {"binder": "B18", "binding signal": "0.00723 KA relative to UGCAUGU"}, {"binder": "B19", "binding signal": "0.00891 KA relative to UGCAUGU"}, {"binder": "B20", "binding signal": "0.0129 KA relative to UGCAUGU"}]}]}
